Results as given in PubChem BioAssay AID624418 (National Center for Advancing Translational Sciences (NCATS), 2012).
About 530 (0.13%) of roughly 410,000 compounds were called active. The inconclusive results got no clear call from the source; some entries with a clear call stand among them for comparison. Calls come from the whole dose curve; as a rule, active = well fitted inhibition curve with a large enough effect; inconclusive = small, poorly fitted or top-dose-only effect, or another doubt; inactive = no such curve, though single readings can be large or run the other way. Potencies beside an inconclusive call are fits to weak or partial responses and may not hold up.

Assay: qHTS of GLP-1 Receptor Inverse Agonists: Cytotox Screen
Conditions: HEK293 cAMP-luciferase reporter cells, luminescence, 24 h; activity change, negative = inhibition: at 38.3 µM (top of the series) unless noted
How it was run: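 Luminescence readout: signal drop marks cytotoxicity. Plated cells grew 12 h at 37 °C, 5% CO2, received 23 nL compound for 24 h, then got luciferase reagent, read after 12 min at RT.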
% is set by controls: 0 for no effect and ±100 for the full control effect; potency is the fitted concentration of half-maximal effect.

Question: For `Clc1ccc(CNc2nc(CN3CCOCC3)nc3scc(-c4ccccc4)c23)cc1`, which Potency is on record?
Answer: Its Potency is inconclusive: 25.1 µM [inhibitor, single point].

Question: Which Potency does the source give for `Cn1c(SC2=CS(=O)(=O)c3ccccc32)nc2ccccc21` here?
Answer: The Potency was inconclusive: 11.2 µM [inhibitor, partial curve, poor fit].

Question: For `CC1OC(Nc2ccc(N=Nc3ccccc3)cc2)C(O)C(O)C1O` (stereo unspecified), which Potency is on record?
Answer: Its Potency is inconclusive: 14.1 µM [inhibitor, single point].

Question: Which “activity change, negative = inhibition” value does the source give for `C[C@H](CO)N1C[C@H](C)[C@@H](CN(C)C(=O)CCC(F)(F)F)OCc2cnnn2CCCC1=O` here?
Answer: Its value is inactive: -7.08%.

Question: Which Potency does the source give for `NC(=S)c1ccc(OCCCc2ccccc2)cc1` here?
Answer: Its Potency is inconclusive: 28.2 µM [inhibitor, single point].

Question: With `Cc1nn(-c2ccccc2)c(Cl)c1CN(C(=O)CCl)c1cccc2ccccc12` as the compound, how does the Potency read?
Answer: Its Potency is inconclusive: 11.2 µM [inhibitor, partial curve, poor fit].

Question: Which Potency does the source give for `CN1CCCC1CCNc1ccc2sc3ccccc3c(=O)c2c1` (stereo unspecified) here?
Answer: The Potency was inconclusive: 28.2 µM [inhibitor, single point].

Question: With `COc1ccccc1-c1nnc(SCC(=O)NCc2c(C)c(Cl)cc(C(C)C)c2O)o1` as the compound, how does the Potency read?
Answer: Its Potency is inconclusive: 22.4 µM [inhibitor, single point].

Question: Which Potency does the source give for `CN(C)c1cccc(C(=O)Nc2nc3ccc(S(=O)(=O)N4CCCC4)cc3s2)c1` here?
Answer: Its Potency is inconclusive: 3.16 µM [inhibitor, partial curve, poor fit].

Question: With `COc1ccc(N2CCc3c(C)nc4c(OC)cccc4c32)cc1` as the compound, how does the Potency read?
Answer: The Potency was inconclusive: 7.08 µM [inhibitor, partial curve, poor fit].

Question: With `O=C(NNc1nc(-c2ccc(Br)cc2)cs1)c1ccco1` as the compound, how does the Potency read?
Answer: Its Potency is inconclusive: 12.6 µM [inhibitor, partial curve].

Question: Which Potency does the source give for `N#Cc1ccc(NC(=O)COC(=O)CCc2nc3ccccc3c(=O)[nH]2)cc1` here?
Answer: Its Potency is inconclusive: 0.501 µM [inhibitor, full curve, poor fit].

Question: Which Potency does the source give for `O=[N+]([O-])c1cc(Br)ccc1NS(=O)(=O)c1ccccc1` here?
Answer: Its Potency is inconclusive: 12.6 µM [inhibitor, single point].

Question: With `O=C(Nc1ccc2nc3n(c(=O)c2c1)CCCCC3)c1cc([N+](=O)[O-])ccc1F` as the compound, how does the Potency read?
Answer: Its Potency is inconclusive: 22.4 µM [inhibitor, single point].

Question: With `COc1cccc(/C=N/Nc2nnc(C)n2N)c1O` as the compound, how does the Potency read?
Answer: The Potency was inconclusive: 10 µM [inhibitor, partial curve].

Question: With `Cc1oc2ncn(C)c(=O)c2c1C(=O)Nc1ccc(F)cc1` as the compound, how does the “activity change, negative = inhibition” value read?
Answer: Its value is inactive: 3.08%.

Question: For `O=C1NC(=O)/C(=C\c2ccccc2Oc2ccc(F)c(F)c2)S1`, which Potency is on record?
Answer: Its Potency is inconclusive: 28.2 µM [inhibitor, single point].

Question: For `Cc1ccc(C2CCN(C(=O)Nc3ccc(Cl)c(Cl)c3)C2)cc1` (stereo unspecified), which “activity change, negative = inhibition” value is on record?
Answer: Its value is inactive: -0.497%.

Question: For `CCNC(=S)N/N=C(\C)c1ccco1`, which Potency is on record?
Answer: The Potency was inconclusive: 22.4 µM [inhibitor, single point].

Question: With `COc1ccccc1NC(=O)CSc1nnnn1-c1ccc(C)cc1` as the compound, how does the Potency read?
Answer: The Potency was inconclusive: 12.6 µM [inhibitor, single point].

Question: With `COc1ccc2[nH]c(C)c(CCNC(=S)Nc3cc(C)ccc3C)c2c1` as the compound, how does the “activity change, negative = inhibition” value read?
Answer: The value was inactive: 4.66%.

Question: Which Potency does the source give for `CCOC(=O)C1=C(C)NC(SC)=C(C#N)C1CC(C)C` (stereo unspecified) here?
Answer: The Potency was inconclusive: 28.2 µM [inhibitor, single point].

Question: Which Potency does the source give for `O=C(Nc1ncc([N+](=O)[O-])s1)c1ccccc1Br` here?
Answer: The Potency was inconclusive: 28.2 µM [inhibitor, single point].

Question: With `CCN1CCCC1CNC(=O)c1cc2c(-c3cccc(OC)c3)nn(C)c2s1` (stereo unspecified) as the compound, how does the Potency read?
Answer: The Potency was inconclusive: 10 µM [inhibitor, single point].

Question: Which Potency does the source give for `C=CCOc1cccc(/C=N/NC(=O)CN(c2cc(Cl)ccc2OC)S(=O)(=O)c2ccc(C)c([N+](=O)[O-])c2)c1` here?
Answer: The Potency was inconclusive: 10 µM [inhibitor, single point].

Question: With `O=C(c1cccs1)N(CCN1CCCCC1)CC1CCCN(C2CCCC2)C1` (stereo unspecified) as the compound, how does the Potency read?
Answer: Its Potency is inconclusive: 7.08 µM [inhibitor, partial curve, poor fit].

Question: With `O=S(=O)(c1ccc2c(c1)OCCO2)N1CCC(c2nc3ccc(Cl)cc3[nH]2)CC1` as the compound, how does the Potency read?
Answer: Its Potency is inconclusive: 28.2 µM [inhibitor, single point].

Question: With `Cc1ccc(NC(=O)c2sccc2-n2cccc2)c(C)c1` as the compound, how does the Potency read?
Answer: Its Potency is inconclusive: 2.51 µM [inhibitor, partial curve, poor fit].

Question: For `CCOc1ccc(NCc2cccn2-c2nnc(N3CCC(C(=O)NCCCN4C(C)CCCC4C)CC3)s2)cc1` (stereo unspecified), which Potency is on record?
Answer: The Potency was inconclusive: 28.2 µM [inhibitor, single point].

Question: With `CCN(CC)CCCC(C)Nc1nccc2c(Cl)cccc12` (stereo unspecified) as the compound, how does the Potency read?
Answer: The Potency was inconclusive: 28.2 µM [inhibitor, single point].

Question: Which Potency does the source give for `COc1ccccc1CCC(=O)Nc1nc2ccccc2[nH]1` here?
Answer: The Potency was inconclusive: 10 µM [inhibitor, partial curve, poor fit].

Question: For `Cc1ccc(CNC(=O)CSc2nnc(C)c3c(C)n(-c4ccccc4)nc23)cc1`, which “activity change, negative = inhibition” value is on record?
Answer: Its value is inactive: -23.1%.

Question: With `O=C(Cn1cnc2c(nnn2-c2ccc(F)cc2)c1=O)N1CCCc2ccccc21` as the compound, how does the Potency read?
Answer: Its Potency is inconclusive: 11.2 µM [inhibitor, single point].

Question: Which “activity change, negative = inhibition” value does the source give for `COC(=O)C1(C(=O)OC)NOC2C(=O)N(c3ccc(Cl)cc3Cl)C(=O)C21` (stereo unspecified) here?
Answer: Its value is inactive: 10.4%.

Question: Which “activity change, negative = inhibition” value does the source give for `CC(=O)c1cccc(NC(=O)c2sc(-n3nc(C)c(CCC(C)C)c3C)nc2C)c1` here?
Answer: Its value is inactive: 10.4%.

Question: For `Cc1cc(C(=O)CN2c3cccc4cccc(c34)S2(=O)=O)c(C)n1C`, which “activity change, negative = inhibition” value is on record?
Answer: Its value is inactive: -11.5%.

Question: Which Potency does the source give for `O=C(Nc1ccc(N2CCOCC2)cc1Cl)C1CCN(C(=O)OCc2ccccc2)CC1` here?
Answer: The Potency was inconclusive: 31.6 µM [inhibitor, single point].

Question: Which Potency does the source give for `Cc1nc2ncccn2c1-c1csc(Nc2ccc(N(C)C)cc2)n1` here?
Answer: The Potency was inconclusive: 1 µM [inhibitor, full curve, poor fit].

Question: With `CCCCNc1ncnc2c1cnn2-c1ccccc1` as the compound, how does the Potency read?
Answer: Its Potency is inconclusive: 4.47 µM [inhibitor, partial curve].

Question: Which Potency does the source give for `CCC1=C(OC(=O)N(CC)CC)N2C(=O)OC(=NCC(=O)OC)[C@]2(C)[C@H]2C1=CC[C@H]1C(=O)N(CC(=O)OC)C(=O)[C@H]12` here?
Answer: Its Potency is inconclusive: 1.78 µM [inhibitor, full curve, poor fit].

Question: With `Cc1cc(N2CCN(C)CC2)nc2ccc(NC(=S)N3CCN(c4ccc(F)cc4)CC3)cc12` as the compound, how does the Potency read?
Answer: Its Potency is inconclusive: 12.6 µM [inhibitor, single point].

Question: Which “activity change, negative = inhibition” value does the source give for `COc1ccc(CNC(=O)CN(c2cc(C(F)(F)F)ccc2Cl)S(C)(=O)=O)cc1` here?
Answer: Its value is inactive: -6.83%.

Question: For `CCN1/C(=C\C(=S)Nc2ccccc2)Sc2ccccc21`, which Potency is on record?
Answer: The Potency was inconclusive: 14.1 µM [inhibitor, single point].

Question: With `Cc1ccccc1Nc1sc(C(=O)c2ccc(F)cc2)c(N)c1C(=O)NCCc1ccccc1` as the compound, how does the “activity change, negative = inhibition” value read?
Answer: Its value is inactive: -18.4%.

Question: With `Cc1ccc(S(=O)(=O)c2nc(-c3cccs3)oc2NCCCN(C)C)cc1` as the compound, how does the Potency read?
Answer: Its Potency is inconclusive: 28.2 µM [inhibitor, single point].

Question: With `CC(=NNC(=S)N1CC2CCC(CC2)C1)c1ccncn1` as the compound, how does the Potency read?
Answer: Its Potency is inconclusive: 0.891 µM [inhibitor, full curve, poor fit].

Question: For `CCC1=NN(C(=O)c2cccc(Br)c2)C(O)(c2ccc(Br)cc2)C1` (stereo unspecified), which Potency is on record?
Answer: Its Potency is inconclusive: 11.2 µM [inhibitor, single point].

Question: With `CC(C)C[C@@H](COCc1ccc(Cl)cc1)N1CCN(C(=O)c2ccc(Cl)cc2Cl)CCC1=O` as the compound, how does the Potency read?
Answer: The Potency was inconclusive: 12.6 µM [inhibitor, single point].

Question: Which Potency does the source give for `CN(C)CCOCCOc1ccc(Cl)cc1C(C)(C)C` here?
Answer: Its Potency is inconclusive: 28.2 µM [inhibitor, single point].

Question: With `C/C(=N\NC(=S)NC1CCCCC1)c1ccccc1` as the compound, how does the Potency read?
Answer: The Potency was inconclusive: 10 µM [inhibitor, partial curve].

Question: With `Cc1cccc(N(C(=O)CNC(=O)c2ccco2)C(C(=O)NC2CCCCC2)c2cccnc2)c1` (stereo unspecified) as the compound, how does the “activity change, negative = inhibition” value read?
Answer: The value was inactive: -2.79%.

Question: Which “activity change, negative = inhibition” value does the source give for `CCOc1cc(CNC(=O)c2ccc3c(c2)nc2n3CCCCC2)ccc1OC` here?
Answer: Its value is inactive: 21.7%.

Question: For `Cc1ccc(S(=O)(=O)c2cnc(SCC(=O)Nc3ccccc3C(F)(F)F)[nH]c2=O)cc1C`, which “activity change, negative = inhibition” value is on record?
Answer: Its value is inactive: 5.06%.

Question: For `Cc1cc(C)cc(NC(=O)C2CCCN(c3cnccn3)C2)c1` (stereo unspecified), which “activity change, negative = inhibition” value is on record?
Answer: The value was inactive: 0.868%.

Question: For `CC1CCN(CCCNC(=O)CN2C(=O)CSc3ccc(S(=O)(=O)N4CCC(C)CC4)cc32)CC1`, which Potency is on record?
Answer: The Potency was “inactive”.

Question: Which Potency does the source give for `COC(=O)C1CCN(C(=O)COC(=O)c2cc([N+](=O)[O-])ccc2N2CCOCC2)CC1` here?
Answer: Its Potency is inconclusive: 28.2 µM [inhibitor, single point].

Question: Which Potency does the source give for `COc1ccc(OC)c(-c2cnc(OC(C)(C)C)nc2OC(C)(C)C)c1` here?
Answer: Its Potency is inconclusive: 5.62 µM [inhibitor, full curve, poor fit].

Question: For `CC1CCCC(NC(=O)c2cccc(S(=O)(=O)N3CCN(c4ccccc4)CC3)c2)C1C` (stereo unspecified), which “activity change, negative = inhibition” value is on record?
Answer: The value was inactive: -11.5%.

Question: Which “activity change, negative = inhibition” value does the source give for `CCCCn1cnc2cc(NCc3cccc(OC)c3O)ccc21` here?
Answer: The value was inactive: -14.4%.

Question: For `Cc1c(S(=O)(=O)Nc2ccc(Br)cc2)c(=O)n(C)c(=O)n1C`, which “activity change, negative = inhibition” value is on record?
Answer: The value was inactive: -7.38%.

Question: With `CCC(=O)N1CCN(c2ccccc2NC(=S)NC(=O)c2cccc([N+](=O)[O-])c2)CC1` as the compound, how does the “activity change, negative = inhibition” value read?
Answer: Its value is inactive: -1.72%.

Question: For `Oc1cccc(-c2sc3ccccc3c2-c2ccc(OCCN3CCCCC3)cc2)c1`, which Potency is on record?
Answer: The Potency was inconclusive: 22.4 µM [inhibitor, single point].

Question: Which Potency does the source give for `CCOC(=O)c1ccc(NC(=S)N(CCCN2CCN(C)CC2)Cc2cccs2)cc1` here?
Answer: The Potency was inconclusive: 10 µM [inhibitor, partial curve].

Question: Which Potency does the source give for `S=C(NCCc1ccccc1)Nc1ccccc1N1CCOCC1` here?
Answer: The Potency was inconclusive: 11.2 µM [inhibitor, partial curve].

Question: Which Potency does the source give for `S=C1SCN(Cc2cccnc2)CN1Cc1ccccc1` here?
Answer: Its Potency is inconclusive: 5.62 µM [inhibitor, partial curve, poor fit].

Question: Which “activity change, negative = inhibition” value does the source give for `O=[N+]([O-])c1cccc(/C=N\N2CCN(Cc3ccccc3Cl)CC2)c1` here?
Answer: The value was inactive: 0.962%.
